Results as given in patent US20210380699A1 (published 2021).

B1: 1D05 D1-9 ICK (other)
heavy: EVQLVESGGGLVQPGRSLRLSCAASGFTFDDYAMHWVRQVPGKGLEWVSGISWIRTGIGYADSVKGRFTIFRDNAKNSLYLQMNSLRAEDTALYYCAKDMKGSGTYGGWFDTWGQGTLVTVSS[human IgG1 constant region with L235A G237A (EU numbers) omitted]
light: [about 100 residues omitted]RTVAAPSVFIFPPSDEQLKSGTASVVCLLNNFYPREAKVQWKVDNALQSGNSQESVTEQDSKDSTYSLSSTLTLSKADYEKHKVYACEVTHQGLSSPVTKSFNRGECTQLQLEHLLLDLQMILNGINNYKNPKLTRMLTFKFYMPKKATELKHLQCLEEELKPLEEVLNLAQSKNFHLRPRDLISNINVIVLELKGSETTFMCEYADETATIVEFLNRWITFCQSIISTLT
notes: immunocytokine, IL-2 variant on light chain C-terminus; also called 1D05 IC46 (D1-9)
B2: 1D05 D9-7 ICK (other)
heavy: B1 heavy
light: [about 100 residues omitted]RTVAAPSVFIFPPSDEQLKSGTASVVCLLNNFYPREAKVQWKVDNALQSGNSQESVTEQDSKDSTYSLSSTLTLSKADYEKHKVYACEVTHQGLSSPVTKSFNRGECAPTSSSTQLQLEHLLLDLQMILNGINNYKNPKLTRMLTFKFYMPKKATELKHLQCLEEELKPLEEVLNLAQSKNFHLRPRDLISNINVIVLELKGSETTFMCEYADETATIVEFLNRWITFCQSIISTLT
notes: immunocytokine, IL-2 variant on light chain C-terminus; also called 1D05 LC D9-7 ICK
B3: 1D05 D1-6 ICK (other)
heavy: B1 heavy
light: [about 100 residues omitted]RTVAAPSVFIFPPSDEQLKSGTASVVCLLNNFYPREAKVQWKVDNALQSGNSQESVTEQDSKDSTYSLSSTLTLSKADYEKHKVYACEVTHQGLSSPVTKSFNRGECTKKTQLQLEHLLLDLQMILNGINNYKNPKLTRMLTFKFYMPKKATELKHLQCLEEELKPLEEVLNLAQSKNFHLRPRDLISNINVIVLELKGSETTFMCEYADETATIVEFLNRWITFCQSIISTLT
notes: immunocytokine, IL-2 variant on light chain C-terminus
B4: 1D05 D5-9 ICK (other)
heavy: B1 heavy
light: [about 100 residues omitted]RTVAAPSVFIFPPSDEQLKSGTASVVCLLNNFYPREAKVQWKVDNALQSGNSQESVTEQDSKDSTYSLSSTLTLSKADYEKHKVYACEVTHQGLSSPVTKSFNRGECAPTSTQLQLELLLDLQMILNGINNYKNPKLTRMLTFKFYMPKKATELKHLQCLEEELKPLEEVLNLAQSKNFHLRPRDLISNINVIVLELKGSETTFMCEYADETATIVEFLNRWITFCQSIISTLT
notes: immunocytokine, IL-2 variant on light chain C-terminus; also called 1D05 IC45 (D5-9)
B5: 1D05 D5-7 ICK (other)
heavy: B1 heavy
light: [about 100 residues omitted]RTVAAPSVFIFPPSDEQLKSGTASVVCLLNNFYPREAKVQWKVDNALQSGNSQESVTEQDSKDSTYSLSSTLTLSKADYEKHKVYACEVTHQGLSSPVTKSFNRGECAPTSKKTQLQLEHLLLDLQMILNGINNYKNPKLTRMLTFKFYMPKKATELKHLQCLEEELKPLEEVLNLAQSKNFHLRPRDLISNINVIVLELKGSETTFMCEYADETATIVEFLNRWITFCQSIISTLT
notes: immunocytokine, IL-2 variant on light chain C-terminus; also called 1D05 IC64 (D5-7)
B6: 1D05 D9-8 ICK (other)
heavy: B1 heavy
light: [about 100 residues omitted]RTVAAPSVFIFPPSDEQLKSGTASVVCLLNNFYPREAKVQWKVDNALQSGNSQESVTEQDSKDSTYSLSSTLTLSKADYEKHKVYACEVTHQGLSSPVTKSFNRGECAPTSSSTTQLQLEHLLLDLQMILNGINNYKNPKLTRMLTFKFYMPKKATELKHLQCLEEELKPLEEVLNLAQSKNFHLRPRDLISNINVIVLELKGSETTFMCEYADETATIVEFLNRWITFCQSIISTLT
notes: as for B3
B7: 1D05 D9-6 ICK (other)
heavy: B1 heavy
light: [about 100 residues omitted]RTVAAPSVFIFPPSDEQLKSGTASVVCLLNNFYPREAKVQWKVDNALQSGNSQESVTEQDSKDSTYSLSSTLTLSKADYEKHKVYACEVTHQGLSSPVTKSFNRGECAPTSSTQLQLEHLLLDLQMILNGINNYKNPKLTRMLTFKFYMPKKATELKHLQCLEEELKPLEEVLNLAQSKNFHLRPRDLISNINVIVLELKGSETTFMCEYADETATIVEFLNRWITFCQSIISTLT
notes: as for B3
B8: 1D05 D9-3 ICK (other)
heavy: B1 heavy
light: [about 100 residues omitted]RTVAAPSVFIFPPSDEQLKSGTASVVCLLNNFYPREAKVQWKVDNALQSGNSQESVTEQDSKDSTYSLSSTLTLSKADYEKHKVYACEVTHQGLSSPVTKSFNRGECAPTQLQLEHLLLDLQMILNGINNYKNPKLTRMLTFKFYMPKKATELKHLQCLEEELKPLEEVLNLAQSKNFHLRPRDLISNINVIVLELKGSETTFMCEYADETATIVEFLNRWITFCQSIISTLT
notes: as for B3
B9: 1D05 D4-8 ICK (other)
heavy: B1 heavy
light: [about 100 residues omitted]RTVAAPSVFIFPPSDEQLKSGTASVVCLLNNFYPREAKVQWKVDNALQSGNSQESVTEQDSKDSTYSLSSTLTLSKADYEKHKVYACEVTHQGLSSPVTKSFNRGECAPTKTQLQLEHLLLDLQMILNGINNYKNPKLTRMLTFKFYMPKKATELKHLQCLEEELKPLEEVLNLAQSKNFHLRPRDLISNINVIVLELKGSETTFMCEYADETATIVEFLNRWITFCQSIISTLT
notes: as for B3
B10: 1D05 - IgG1 disabled (LAGA) (antibody)
heavy: B1 heavy
light: [about 100 residues omitted][about 100 residues omitted]
notes: also called Antibody 1; 1D05 hIgG1 LAGA

Target: T1, Human PD-L1 His (human PD-L1 ECD with C-terminal His tag) (human, UniProt Q9NZQ7 partial chain)
T1 construct: Biotinylated in ELISA and AlphaScreen assays; also called hPD-L1-his; biotinylated PD-L1 his
T1 sequence (Q9NZQ7 19-238 limits assumed): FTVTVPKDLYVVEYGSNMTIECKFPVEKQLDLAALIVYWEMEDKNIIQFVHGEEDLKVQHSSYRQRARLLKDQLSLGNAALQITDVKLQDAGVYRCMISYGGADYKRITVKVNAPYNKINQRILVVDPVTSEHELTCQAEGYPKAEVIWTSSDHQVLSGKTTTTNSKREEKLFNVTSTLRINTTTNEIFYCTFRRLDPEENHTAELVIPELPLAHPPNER
Assay: ELISA, biotin-PD-L1 to plate-bound CD80, antibody titrated
Description: (§1) Excess protein was removed by washing with PBS-Tween (0.1% v/v) and the wells were blocked with 1% w/v bovine serum albumin (BSA, Sigma) in PBS for 1 hour at room temperature, after which plates were washed as described previously. 60 μL of a titration (three-fold dilutions from 100 nM) of antibody was added to a 96-well, non-binding plate diluted in ELISA assay buffer (PBS+0.1% BSA). […] The plate was incubated for 30 min before transferring 50 μL to the coated plates.
(§2) The coated plates were incubated for 1 hour at room temperature. Excess protein was removed by washing with PBS-Tween (0.1% v/v). PD-L1 binding was detected using streptavidin labelled Europium (Perkin Elmer) diluted 1/1000 in DELFIA assay buffer (Perkin Elmer). The plates were washed with TBS (Tris buffered saline)-Tween (0.1% v/v) and 50 μL/well of DELFIA Enhancement solution (Perkin Elmer) was added to the plate. The time-resolved fluorescence was measured at 615 nm on an Envision plate reader (PerkinElmer). Percentage specific binding was calculated as defined in Equation 3.

Q: For B1, which IC50 is on record?
A: 1070 pM

Q: B2 was tested. Which IC50 did it give?
A: 700 pM

Target: T1, Human PD-L1 His (human PD-L1 ECD with …)
Assay: SPR 25C, antibody captured, PD-L1 analyte
Description: Label-free surface plasmon resonance (SPR) analysis was carried out on the ProteOn XPR36 (BioRad) array SPR machine. An anti-human IgG capture surface was created on a GLC biosensor chip using amine coupling of an anti-human IgG from GE Healthcare. […] The assay was carried out at 25° C. using HBS-EP (Teknova H8022). Buffer alone was used to reference the binding sensorgrams. The data was analysed using the 1:1 model inherent to the ProteOn XPR36 analysis software.

Q: With B3 as the binder, how does the Kd read?
A: 211 pM

Q: B4 was tested. Which Kd did it give?
A: 203 pM

Q: For B1, which Kd is on record?
A: 195 pM

Q: How did the Kd turn out when B5 was run?
A: 214 pM

Q: For B2, which Kd is on record?
A: 200 pM

Q: How did the Kd turn out when B6 was run?
A: 225 pM

Q: Which Kd does the source give for B7 here?
A: 211 pM

Q: Which Kd does the source give for B8 here?
A: 171 pM

Q: How did the Kd turn out when B9 was run?
A: 208 pM

Target: T1, Human PD-L1 His (human PD-L1 ECD with …)
Assay: SPR 25C, antibody captured, PD-L1 analyte
Remark: another data set of the same source

Q: B10 was tested. Which Kd did it give?
A: 350 pM

Target: T1, Human PD-L1 His (human PD-L1 ECD with …)
Assay: ELISA, biotin-PD-L1 to plate-bound PD-1, antibody titrated
Description: as §1, §2

Q: For B1, which IC50 is on record?
A: 1750 pM

Q: How did the IC50 turn out when B2 was run?
A: 1150 pM
